# Measurements reported in the supplement of paper PMC8728848.
# The other results are listed elsewhere or left out.
# What was measured:
# Experiment in all cases: glycan array binding signal (z-score within array); higher = stronger binding
# Settings in all cases: glycan notation: IUPAC condensed, linker removed
# Gal(a1-3)Gal = target: Gal(a1-3)Gal
# In short: (§1)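 Glycan array data were curated from 3228 arrays in the Consortium for Functional Glycomics database and kept only where the protein sequence was available. Glycan names were converted to IUPAC-condensed notation, and columns mapping to the same glycan were averaged. The binding signal is a within-array Z-score, averaged across arrays of the same protein sequence at different concentrations or buffers and across linkers. Negative Z-scores can be read as non-binding.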
# Gal(a1-3)Gal(b1-3)GlcNAc = target: Gal(a1-3)Gal(b1-3)GlcNAc
# In short: as §1
# [1] = target: Gal(a1-3)Gal(b1-3)GlcNAc(b1-2)Man
# In short: as §1
# [2] = target: Gal(a1-3)Gal(b1-3)GlcNAc(b1-2)Man(a1-3)[Gal(a1-3)Gal(b1-3)GlcNAc(b1-2)Man(a1-6)]Man(b1-4)GlcNAc(b1-4)GlcNAc
# In short: as §1
# [3] = target: Gal(a1-3)Gal(b1-3)GlcNAc(b1-3)GalNAc
# In short: as §1
# [4] = target: Gal(a1-3)Gal(b1-3)GlcNAc(b1-6)GalNAc
# In short: as §1
# [5] = target: Gal(a1-3)Gal(b1-3)[Fuc(a1-4)]GlcNAc(b1-2)Man(a1-3)[Gal(a1-3)Gal(b1-3)[Fuc(a1-4)]GlcNAc(b1-2)Man(a1-6)]Man(b1-4)GlcNAc(b1-4)GlcNAc
# In short: as §1
# Gal(a1-3)Gal(b1-4)Glc = target: Gal(a1-3)Gal(b1-4)Glc
# In short: as §1
# Gal(a1-3)Gal(b1-4)GlcNAc = target: Gal(a1-3)Gal(b1-4)GlcNAc
# In short: as §1
# [6] = target: Gal(a1-3)Gal(b1-4)GlcNAc(b1-2)Man
# In short: as §1
# [7] = target: Gal(a1-3)Gal(b1-4)GlcNAc(b1-2)Man(a1-3)[Gal(a1-3)Gal(b1-4)GlcNAc(b1-2)Man(a1-6)]Man(b1-4)GlcNAc(b1-4)GlcNAc
# In short: as §1
# [8] = target: Gal(a1-3)Gal(b1-4)GlcNAc(b1-3)GalNAc
# In short: as §1
# [9] = target: Gal(a1-3)Gal(b1-4)GlcNAc(b1-6)GalNAc
# In short: as §1
# [10] = target: Gal(a1-3)Gal(b1-4)[Fuc(a1-3)]GlcNAc
# In short: as §1
# [11] = target: Gal(a1-3)Gal(b1-4)[Fuc(a1-3)]GlcNAc(b1-2)Man(a1-3)[Gal(a1-3)Gal(b1-4)[Fuc(a1-3)]GlcNAc(b1-2)Man(a1-6)]Man(b1-4)GlcNAc(b1-4)GlcNAc
# In short: as §1
# Gal(a1-3)GalNAc = target: Gal(a1-3)GalNAc
# In short: as §1
# [12] = target: Gal(a1-3)[Gal(a1-4)]Gal(b1-4)GlcNAc
# In short: as §1
# [13] = target: Gal(a1-4)Gal(b1-3)GlcNAc(b1-2)Man(a1-3)[Gal(a1-4)Gal(b1-3)GlcNAc(b1-2)Man(a1-6)]Man(b1-4)GlcNAc(b1-4)GlcNAc
# In short: as §1
# Gal(a1-4)Gal(b1-4)Glc = target: Gal(a1-4)Gal(b1-4)Glc
# In short: as §1
# Gal(a1-4)Gal(b1-4)GlcNAc = target: Gal(a1-4)Gal(b1-4)GlcNAc
# In short: as §1
# [14] = target: Gal(a1-4)Gal(b1-4)GlcNAc(b1-2)Man(a1-3)[Gal(a1-4)Gal(b1-4)GlcNAc(b1-2)Man(a1-6)]Man(b1-4)GlcNAc(b1-4)GlcNAc
# In short: as §1
# [15] = target: Gal(a1-4)Gal(b1-4)GlcNAc(b1-3)Gal(b1-4)Glc
# In short: as §1
# Gal(a1-4)GlcNAc = target: Gal(a1-4)GlcNAc
# In short: as §1
# Gal(a1-6)Glc = target: Gal(a1-6)Glc
# In short: as §1
# Gal(b1-2)Gal = target: Gal(b1-2)Gal
# In short: as §1
# Gal(b1-3)Gal = target: Gal(b1-3)Gal
# In short: as §1
# Gal(b1-3)Gal(b1-4)GlcNAc = target: Gal(b1-3)Gal(b1-4)GlcNAc
# In short: as §1
# Gal(b1-3)GalNAc = target: Gal(b1-3)GalNAc
# In short: as §1
# [16] = target: Gal(b1-3)GalNAc(a1-3)[Fuc(a1-2)]Gal(b1-4)Glc
# In short: as §1
# [17] = target: Gal(b1-3)GalNAc(a1-3)[Fuc(a1-2)]Gal(b1-4)GlcNAc
# In short: as §1
# Gal(b1-3)GalNAc(b1-3)Gal = target: Gal(b1-3)GalNAc(b1-3)Gal
# In short: as §1
# [18] = target: Gal(b1-3)GalNAc(b1-3)Gal(a1-4)Gal(b1-4)Glc
# In short: as §1
# [19] = target: Gal(b1-3)GalNAc(b1-4)Gal(b1-4)Glc
# In short: as §1
# [20] = target: Gal(b1-3)GalNAc(b1-4)[Neu5Ac(a2-3)]Gal(b1-4)Glc
# In short: as §1
# Gal(b1-3)GlcNAc = target: Gal(b1-3)GlcNAc
# In short: as §1
# [21] = target: Gal(b1-3)GlcNAc(a1-3)Gal(b1-4)GlcNAc
# In short: as §1
# [22] = target: Gal(b1-3)GlcNAc(a1-6)Gal(b1-4)GlcNAc
# In short: as §1
# Gal(b1-3)GlcNAc(b1-2)Man = target: Gal(b1-3)GlcNAc(b1-2)Man
# In short: as §1
binder,measurement,setting,value
"MGL2 (Mus musculus), Q8JZN1 (protein) MTMRYENFQNLEREEKNQEMRNGDKKGGMESPKFALIPSQSFLWRILSWTHLLLFSLGLSLLLLVVISVIGSQNSQLRRDLGTLRAILDNTTSKIKAEFQSLDSRADNFEKGISSLKVDVEDHRQELQAGRDLSQKVTSLESTLEKREQALKTDLSDLTDHVQQLETDLKALTCQLANLKNNGSEVACCPLHWTEHEGSCYWFSESEKSWPEADKYCRLENSHLVVVNSLEEQNFLQNRLANVLSWMGLTDQNGPWRWVDGTDFDKGFKNWRPLQPDNWHGHMLGGGEDCAHFSYDGRWNDDVCQRHYHWICETELGKASSAHSPQLIASVP",glycan array binding signal (z-score),Gal(a1-3)Gal,-0.133
same,glycan array binding signal (z-score),Gal(a1-3)Gal(b1-3)GlcNAc,-0.249
same,glycan array binding signal (z-score),[1],-0.212
same,glycan array binding signal (z-score),[2],-0.113
same,glycan array binding signal (z-score),[3],-0.158
same,glycan array binding signal (z-score),[4],0.517
same,glycan array binding signal (z-score),[5],-0.193
same,glycan array binding signal (z-score),Gal(a1-3)Gal(b1-4)Glc,-0.21
same,glycan array binding signal (z-score),Gal(a1-3)Gal(b1-4)GlcNAc,-0.152
same,glycan array binding signal (z-score),[6],-0.03
same,glycan array binding signal (z-score),[7],-0.211
same,glycan array binding signal (z-score),[8],-0.192
same,glycan array binding signal (z-score),[9],0.838
same,glycan array binding signal (z-score),[10],-0.122
same,glycan array binding signal (z-score),[11],-0.009
same,glycan array binding signal (z-score),Gal(a1-3)GalNAc,-0.18
same,glycan array binding signal (z-score),[12],-0.187
same,glycan array binding signal (z-score),[13],-0.186
same,glycan array binding signal (z-score),Gal(a1-4)Gal(b1-4)Glc,-0.193
same,glycan array binding signal (z-score),Gal(a1-4)Gal(b1-4)GlcNAc,-0.137
same,glycan array binding signal (z-score),[14],-0.088
same,glycan array binding signal (z-score),[15],-0.1
same,glycan array binding signal (z-score),Gal(a1-4)GlcNAc,-0.186
same,glycan array binding signal (z-score),Gal(a1-6)Glc,-0.03
same,glycan array binding signal (z-score),Gal(b1-2)Gal,-0.147
same,glycan array binding signal (z-score),Gal(b1-3)Gal,-0.293
same,glycan array binding signal (z-score),Gal(b1-3)Gal(b1-4)GlcNAc,-0.137
same,glycan array binding signal (z-score),Gal(b1-3)GalNAc,-0.029
same,glycan array binding signal (z-score),[16],-0.217
same,glycan array binding signal (z-score),[17],-0.148
same,glycan array binding signal (z-score),Gal(b1-3)GalNAc(b1-3)Gal,0.153
same,glycan array binding signal (z-score),[18],0.04
same,glycan array binding signal (z-score),[19],-0.122
same,glycan array binding signal (z-score),[20],0.169
same,glycan array binding signal (z-score),Gal(b1-3)GlcNAc,-0.172
same,glycan array binding signal (z-score),[21],-0.311
same,glycan array binding signal (z-score),[22],0.067
same,glycan array binding signal (z-score),Gal(b1-3)GlcNAc(b1-2)Man,-0.185
